A collection of fitness landscapes (doi:10.1126/science.1257360)
Some of the results follow.

B1: PhoQ; a variant is named by its letters at X, in order, P23837 (parent)
chain: MKKLLRLFFPLSLRVRFLLATAAVVLVLSLAYGMVALIGYSVSFDKTTFRLLRGESNLFYTLAKWENNKLHVELPENIDKQSPTMTLIYDENGQLLWAQRDVPWLMKMIQPDWLKSNGFHEIEADVNDTSLLLSGDHSIQQQLQEVREDDDDAEMTHSVAVNVYPATSRMPKLTIVVVDTIPVELKSSYMVWSWFIYVLSANLLLVIPLLWVAAWWSLRPIEALAKEVRELEEHNRELLNPATTRELTSLVRNLNRLLKSERERYDKYRTTLTDLTHSLKTPLXXLQXXLRSLRSEKMSVSDAEPVMLEQISRISQQIGYYLHRASMRGGTLLSRELHPVAPLLDNLTSALNKVYQRKGVNISLDISPEISFVGEQNDFVEVMGNVLDNACKYCLEFVEISARQTDEHLYIVVEDDGPGIPLSKREVIFDRGQRVDTLRPGQGVGLAVAREITEQYEGKIVAGESMLGGARMEVIFGRQHSAPKDE

Variants of: B1
Experiment: enrichment ratio after two sorts for PhoP signalling (ratio (wild type AVST 3.29)); higher = more functional
Conditions: with PhoP (E. coli)

DGFY and IVNP cannot be ordered by enrichment ratio: at most 0.25 for the first, at most 0.25 for the second.

MEPW and MTPW cannot be ordered by enrichment ratio: at most 0.25 for the first, at most 0.25 for the second.

NDQW and ICAI cannot be ordered by enrichment ratio: at most 0.25 for the first, at most 0.25 for the second.

PPYC and YGNP cannot be ordered by enrichment ratio: at most 0.25 for the first, at most 0.25 for the second.

PKDP and LGDD cannot be ordered by enrichment ratio: at most 0.25 for the first, at most 0.25 for the second.

GKNF and AWSI cannot be ordered by enrichment ratio: at most 0.25 for the first, at most 0.25 for the second.

IGMA and WTLV cannot be ordered by enrichment ratio: at most 0.25 for the first, at most 0.25 for the second.

KYVV and DCLS cannot be ordered by enrichment ratio: at most 0.25 for the first, at most 0.25 for the second.

WVLD and FHHA cannot be ordered by enrichment ratio: at most 0.25 for the first, at most 0.25 for the second.

PDNP and VNIK cannot be ordered by enrichment ratio: at most 0.25 for the first, at most 0.25 for the second.

HYIL and VMGH cannot be ordered by enrichment ratio: at most 0.25 for the first, at most 0.25 for the second.

IRWV and NSNI cannot be ordered by enrichment ratio: at most 0.25 for the first, at most 0.25 for the second.

Going from QSDF to WGAI, the enrichment ratio falls from 2.95 to at most 0.25.

Compared with QVVL, LKFK is higher in enrichment ratio: at most 0.25 for the first, 0.274 for the second.

SQDA and MCYY cannot be ordered by enrichment ratio: at most 0.25 for the first, at most 0.25 for the second.

TEPC and EQMH cannot be ordered by enrichment ratio: at most 0.25 for the first, at most 0.25 for the second.

First: SDVG
Second: RYFT
The enrichment ratio of the first is higher: 1.53 for the first, at most 0.25 for the second.

Going from YLAM to LHYT, the enrichment ratio rises from at most 0.25 to 0.383.

RHWV and KSDH cannot be ordered by enrichment ratio: at most 0.25 for the first, at most 0.25 for the second.

NNYS and DKFI cannot be ordered by enrichment ratio: at most 0.25 for the first, at most 0.25 for the second.

IWSM and VLSI cannot be ordered by enrichment ratio: at most 0.25 for the first, at most 0.25 for the second.

NQMY and YCEP cannot be ordered by enrichment ratio: at most 0.25 for the first, at most 0.25 for the second.

HRSV and NKQW cannot be ordered by enrichment ratio: at most 0.25 for the first, at most 0.25 for the second.

KPFE and RYLI cannot be ordered by enrichment ratio: at most 0.25 for the first, at most 0.25 for the second.

Compared with ACIY, GSCH is higher in enrichment ratio: at most 0.25 for the first, 8.43 for the second.

Compared with EFCM, QIWN is higher in enrichment ratio: at most 0.25 for the first, 27.2 for the second.

RRVF and ESVC cannot be ordered by enrichment ratio: at most 0.25 for the first, at most 0.25 for the second.

Going from GCMG to KSFF, the enrichment ratio falls from 16.9 to at most 0.25.

NTTS and ETHR cannot be ordered by enrichment ratio: at most 0.25 for the first, at most 0.25 for the second.

KATH and WILD cannot be ordered by enrichment ratio: at most 0.25 for the first, at most 0.25 for the second.

First: ALSW
Second: LDYN
The enrichment ratio of the first is higher: 7.85 for the first, at most 0.25 for the second.

Compared with AQGC, MSVM is lower in enrichment ratio: 12.4 for the first, 7.37 for the second.

Going from AIIS to EIMR, the enrichment ratio falls from 8.23 to at most 0.25.

QAHN and SNKS cannot be ordered by enrichment ratio: at most 0.25 for the first, at most 0.25 for the second.

SHWN and EVSP cannot be ordered by enrichment ratio: at most 0.25 for the first, at most 0.25 for the second.

LDKP and KEHE cannot be ordered by enrichment ratio: at most 0.25 for the first, at most 0.25 for the second.

RWYT and GKDM cannot be ordered by enrichment ratio: at most 0.25 for the first, at most 0.25 for the second.

LRVV and ASYG cannot be ordered by enrichment ratio: at most 0.25 for the first, at most 0.25 for the second.

First: DAVH
Second: GVCG
The enrichment ratio of the first is lower: at most 0.25 for the first, 12.7 for the second.

FPQK and TNQG cannot be ordered by enrichment ratio: at most 0.25 for the first, at most 0.25 for the second.

EPHM and PTWC cannot be ordered by enrichment ratio: at most 0.25 for the first, at most 0.25 for the second.

STVD and MMKS cannot be ordered by enrichment ratio: at most 0.25 for the first, at most 0.25 for the second.

MHYF and DPYI cannot be ordered by enrichment ratio: at most 0.25 for the first, at most 0.25 for the second.

IPSW and ECTQ cannot be ordered by enrichment ratio: at most 0.25 for the first, at most 0.25 for the second.

RIKD and AWSH cannot be ordered by enrichment ratio: at most 0.25 for the first, at most 0.25 for the second.

ENAY and RFFV cannot be ordered by enrichment ratio: at most 0.25 for the first, at most 0.25 for the second.

YVKS and WSRI cannot be ordered by enrichment ratio: at most 0.25 for the first, at most 0.25 for the second.

KRGE and ERGW cannot be ordered by enrichment ratio: at most 0.25 for the first, at most 0.25 for the second.

VTRH and RQTF cannot be ordered by enrichment ratio: at most 0.25 for the first, at most 0.25 for the second.

PIIV and ACWS cannot be ordered by enrichment ratio: at most 0.25 for the first, at most 0.25 for the second.

KFGM and KTCM cannot be ordered by enrichment ratio: at most 0.25 for the first, at most 0.25 for the second.

HPLC and YHIW cannot be ordered by enrichment ratio: at most 0.25 for the first, at most 0.25 for the second.

KEKC and QRAR cannot be ordered by enrichment ratio: at most 0.25 for the first, at most 0.25 for the second.

EQEF and QEPK cannot be ordered by enrichment ratio: at most 0.25 for the first, at most 0.25 for the second.

Compared with TTCW, KDLA is lower in enrichment ratio: 3.31 for the first, at most 0.25 for the second.

GIKW and HFCY cannot be ordered by enrichment ratio: at most 0.25 for the first, at most 0.25 for the second.

TCER and KVLC cannot be ordered by enrichment ratio: at most 0.25 for the first, at most 0.25 for the second.

First: YIYQ
Second: AMCC
The enrichment ratio of the first is lower: at most 0.25 for the first, 10.4 for the second.

WTWH and NWKI cannot be ordered by enrichment ratio: at most 0.25 for the first, at most 0.25 for the second.

MLKV and RITI cannot be ordered by enrichment ratio: at most 0.25 for the first, at most 0.25 for the second.

CPIS and PDHG cannot be ordered by enrichment ratio: at most 0.25 for the first, at most 0.25 for the second.

TQPI and MHCR cannot be ordered by enrichment ratio: at most 0.25 for the first, at most 0.25 for the second.

MKVM and FFRK cannot be ordered by enrichment ratio: at most 0.25 for the first, at most 0.25 for the second.

Going from SSCE to NCAG, the enrichment ratio falls from 3.26 to at most 0.25.

FDEF and RHEG cannot be ordered by enrichment ratio: at most 0.25 for the first, at most 0.25 for the second.

GWRH and DATL cannot be ordered by enrichment ratio: at most 0.25 for the first, at most 0.25 for the second.

YHVN and SHFL cannot be ordered by enrichment ratio: at most 0.25 for the first, at most 0.25 for the second.

Compared with TESE, YWVM is lower in enrichment ratio: 20 for the first, at most 0.25 for the second.

Compared with TVGQ, AGPY is lower in enrichment ratio: 15.3 for the first, at most 0.25 for the second.

LACV and FMLM cannot be ordered by enrichment ratio: at most 0.25 for the first, at most 0.25 for the second.

HSCQ and FGPT cannot be ordered by enrichment ratio: at most 0.25 for the first, at most 0.25 for the second.

YEDK and SLWI cannot be ordered by enrichment ratio: at most 0.25 for the first, at most 0.25 for the second.

YNKP and DDPD cannot be ordered by enrichment ratio: at most 0.25 for the first, at most 0.25 for the second.

Going from RMST to GSST, the enrichment ratio rises from at most 0.25 to 1.68.

DCVQ and IKIF cannot be ordered by enrichment ratio: at most 0.25 for the first, at most 0.25 for the second.

LAPL and IRVP cannot be ordered by enrichment ratio: at most 0.25 for the first, at most 0.25 for the second.

MRDD was tested, and the enrichment ratio was at most 0.25.
